Experimental data taken from the supplement of paper PMC8728848.
The list shows a part of the results.

Key:
Assay in all cases: glycan array binding signal (z-score within array); higher = stronger binding
Conditions in all cases: glycan notation: IUPAC condensed, linker removed
[1] = target: Neu5Ac(a2-3)Gal(b1-4)GlcNAc
Procedure, shortened: (§1)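 Glycan array data came from 3228 arrays in the Consortium for Functional Glycomics database, and only arrays with an available protein sequence were kept. Glycan names were put into IUPAC-condensed notation, and columns mapping to the same glycan were averaged. The binding signal is a within-array Z-score, averaged across arrays of one protein sequence run at different concentrations or buffers and across linkers. A negative Z-score can be read as non-binding.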

[2] = target: Neu5Ac(a2-3)Gal(b1-4)GlcNAc(b1-2)Man
Procedure, shortened: as §1

[3] = target: Neu5Ac(a2-3)Gal(b1-4)GlcNAc(b1-2)Man(a1-3)[GlcNAc(b1-4)][Neu5Ac(a2-3)Gal(b1-4)GlcNAc(b1-2)Man(a1-6)]Man(b1-4)GlcNAc(b1-4)GlcNAc
Procedure, shortened: as §1

[4] = target: Neu5Ac(a2-3)Gal(b1-4)GlcNAc(b1-2)Man(a1-3)[Neu5Ac(a2-3)Gal(b1-4)GlcNAc(b1-2)Man(a1-6)]Man(b1-4)GlcNAc(b1-4)GlcNAc
Procedure, shortened: as §1

[5] = target: Neu5Ac(a2-3)Gal(b1-4)GlcNAc(b1-2)Man(a1-3)[Neu5Ac(a2-3)Gal(b1-4)GlcNAc(b1-2)Man(a1-6)]Man(b1-4)GlcNAc(b1-4)[Fuc(a1-6)]GlcNAc
Procedure, shortened: as §1

[6] = target: Neu5Ac(a2-3)Gal(b1-4)GlcNAc(b1-2)Man(a1-3)[Neu5Ac(a2-6)Gal(b1-4)GlcNAc(b1-2)Man(a1-6)]Man(b1-4)GlcNAc(b1-4)GlcNAc
Procedure, shortened: as §1

[7] = target: Neu5Ac(a2-3)Gal(b1-4)GlcNAc(b1-2)[Neu5Ac(a2-3)Gal(b1-4)GlcNAc(b1-4)]Man(a1-3)[GlcNAc(b1-4)][Neu5Ac(a2-3)Gal(b1-4)GlcNAc(b1-2)[Neu5Ac(a2-3)Gal(b1-4)GlcNAc(b1-6)]Man(a1-6)]Man(b1-4)GlcNAc(b1-4)GlcNAc
Procedure, shortened: as §1

[8] = target: Neu5Ac(a2-3)Gal(b1-4)GlcNAc(b1-2)[Neu5Ac(a2-3)Gal(b1-4)GlcNAc(b1-4)]Man(a1-3)[GlcNAc(b1-4)][Neu5Ac(a2-3)Gal(b1-4)GlcNAc(b1-4)Man(a1-6)]Man(b1-4)GlcNAc(b1-4)GlcNAc
Procedure, shortened: as §1

[9] = target: Neu5Ac(a2-3)Gal(b1-4)GlcNAc(b1-2)[Neu5Ac(a2-3)Gal(b1-4)GlcNAc(b1-6)]Man(a1-6)[Neu5Ac(a2-3)Gal(b1-4)GlcNAc(b1-2)Man(a1-3)]Man(b1-4)GlcNAc(b1-4)GlcNAc
Procedure, shortened: as §1

[10] = target: Neu5Ac(a2-3)Gal(b1-4)GlcNAc(b1-2)[Neu5Ac(a2-3)Gal(b1-4)GlcNAc(b1-6)]Man(a1-6)[Neu5Ac(a2-3)Gal(b1-4)GlcNAc(b1-2)Man(a1-3)][GlcNAc(b1-4)]Man(b1-4)GlcNAc(b1-4)GlcNAc
Procedure, shortened: as §1

[11] = target: Neu5Ac(a2-3)Gal(b1-4)GlcNAc(b1-3)Gal
Procedure, shortened: as §1

[12] = target: Neu5Ac(a2-3)Gal(b1-4)GlcNAc(b1-3)Gal(b1-3)GlcNAc
Procedure, shortened: as §1

[13] = target: Neu5Ac(a2-3)Gal(b1-4)GlcNAc(b1-3)Gal(b1-4)GlcNAc
Procedure, shortened: as §1

[14] = target: Neu5Ac(a2-3)Gal(b1-4)GlcNAc(b1-3)Gal(b1-4)GlcNAc(b1-2)Man(a1-3)[Neu5Ac(a2-3)Gal(b1-4)GlcNAc(b1-3)Gal(b1-4)GlcNAc(b1-2)Man(a1-6)]Man(b1-4)GlcNAc(b1-4)GlcNAc
Procedure, shortened: as §1

[15] = target: Neu5Ac(a2-3)Gal(b1-4)GlcNAc(b1-3)Gal(b1-4)GlcNAc(b1-3)Gal(b1-4)GlcNAc
Procedure, shortened: as §1

[16] = target: Neu5Ac(a2-3)Gal(b1-4)GlcNAc(b1-3)Gal(b1-4)GlcNAc(b1-3)Gal(b1-4)GlcNAc(b1-2)Man(a1-3)[Neu5Ac(a2-3)Gal(b1-4)GlcNAc(b1-3)Gal(b1-4)GlcNAc(b1-3)Gal(b1-4)GlcNAc(b1-2)Man(a1-6)]GalNAc
Procedure, shortened: as §1

[17] = target: Neu5Ac(a2-3)Gal(b1-4)GlcNAc(b1-3)Gal(b1-4)GlcNAc(b1-3)GalNAc
Procedure, shortened: as §1

[18] = target: Neu5Ac(a2-3)Gal(b1-4)GlcNAc(b1-3)Gal(b1-4)GlcNAc(b1-3)[Neu5Ac(a2-3)Gal(b1-4)GlcNAc(b1-3)Gal(b1-4)GlcNAc(b1-6)]GalNAc
Procedure, shortened: as §1

[19] = target: Neu5Ac(a2-3)Gal(b1-4)GlcNAc(b1-3)Gal(b1-4)GlcNAc(b1-6)[Gal(b1-3)]GalNAc
Procedure, shortened: as §1

[20] = target: Neu5Ac(a2-3)Gal(b1-4)GlcNAc(b1-3)Gal(b1-4)[Fuc(a1-3)]GlcNAc
Procedure, shortened: as §1

[21] = target: Neu5Ac(a2-3)Gal(b1-4)GlcNAc(b1-3)GalNAc
Procedure, shortened: as §1

[22] = target: Neu5Ac(a2-3)Gal(b1-4)GlcNAc(b1-3)[Neu5Ac(a2-3)Gal(b1-4)GlcNAc(b1-6)]GalNAc
Procedure, shortened: as §1

[23] = target: Neu5Ac(a2-3)Gal(b1-4)GlcNAc(b1-6)GalNAc
Procedure, shortened: as §1

[24] = target: Neu5Ac(a2-3)Gal(b1-4)GlcNAc(b1-6)[Gal(b1-3)]GalNAc
Procedure, shortened: as §1

[25] = target: Neu5Ac(a2-3)Gal(b1-4)GlcNAc(b1-6)[Neu5Ac(a2-3)Gal(b1-3)]GalNAc
Procedure, shortened: as §1

[26] = target: Neu5Ac(a2-3)Gal(b1-4)GlcNAc6S
Procedure, shortened: as §1

[27] = target: Neu5Ac(a2-3)Gal(b1-4)[Fuc(a1-3)]GlcNAc
Procedure, shortened: as §1

[28] = target: Neu5Ac(a2-3)Gal(b1-4)[Fuc(a1-3)]GlcNAc(b1-2)Man
Procedure, shortened: as §1

[29] = target: Neu5Ac(a2-3)Gal(b1-4)[Fuc(a1-3)]GlcNAc(b1-3)Gal
Procedure, shortened: as §1

[30] = target: Neu5Ac(a2-3)Gal(b1-4)[Fuc(a1-3)]GlcNAc(b1-3)Gal(b1-4)GlcNAc
Procedure, shortened: as §1

[31] = target: Neu5Ac(a2-3)Gal(b1-4)[Fuc(a1-3)]GlcNAc(b1-3)Gal(b1-4)[Fuc(a1-3)]GlcNAc(b1-3)Gal(b1-4)[Fuc(a1-3)]GlcNAc
Procedure, shortened: as §1

[32] = target: Neu5Ac(a2-3)Gal(b1-4)[Fuc(a1-3)]GlcNAc(b1-3)GalNAc
Procedure, shortened: as §1

[33] = target: Neu5Ac(a2-3)Gal(b1-4)[Fuc(a1-3)]GlcNAc(b1-6)[Gal(b1-3)]GalNAc
Procedure, shortened: as §1

[34] = target: Neu5Ac(a2-3)Gal(b1-4)[Fuc(a1-3)]GlcNAc(b1-6)[Neu5Ac(a2-3)Gal(b1-3)]GalNAc
Procedure, shortened: as §1

[35] = target: Neu5Ac(a2-3)Gal(b1-4)[Fuc(a1-3)]GlcNAc6S
Procedure, shortened: as §1

[36] = target: Neu5Ac(a2-3)Gal6S(b1-4)GlcNAc
Procedure, shortened: as §1

[37] = target: Neu5Ac(a2-3)Gal6S(b1-4)[Fuc(a1-3)]GlcNAc
Procedure, shortened: as §1

Neu5Ac(a2-3)GalNAc = target: Neu5Ac(a2-3)GalNAc
Procedure, shortened: as §1

B1: Clrb (Mus musculus) (protein)
chain: ITGATKTEQIPVNKTYAACPQNWIGVENKCFYFSEYPSNWTFAQAFCMAQEAQLARFDNQDELNFLMRYKANFDSWIGLHRESSEHPWKWTDNTEYNNTIPIRGEERFAYLNNNGISSTRIYSLRMWICSKLNSYSLHCQTPFFPSGTKHHHHHHHHG
- glycan array binding signal (z-score) [1]: 0.03
- glycan array binding signal (z-score) [2]: -0.317
- glycan array binding signal (z-score) [3]: 0.656
- glycan array binding signal (z-score) [4]: -0.311
- glycan array binding signal (z-score) [5]: -0.226
- glycan array binding signal (z-score) [6]: -0.294
- glycan array binding signal (z-score) [7]: -0.305
- glycan array binding signal (z-score) [8]: -0.366
- glycan array binding signal (z-score) [9]: -0.142
- glycan array binding signal (z-score) [10]: 0.153
- glycan array binding signal (z-score) [11]: -0.291
- glycan array binding signal (z-score) [12]: -0.383
- glycan array binding signal (z-score) [13]: 0.115
- glycan array binding signal (z-score) [14]: -0.206
- glycan array binding signal (z-score) [15]: -0.076
- glycan array binding signal (z-score) [16]: -0.185
- glycan array binding signal (z-score) [17]: -0.312
- glycan array binding signal (z-score) [18]: -0.488
- glycan array binding signal (z-score) [19]: -0.208
- glycan array binding signal (z-score) [20]: -0.247
- glycan array binding signal (z-score) [21]: -0.44
- glycan array binding signal (z-score) [22]: -0.487
- glycan array binding signal (z-score) [23]: -0.392
- glycan array binding signal (z-score) [24]: -0.4
- glycan array binding signal (z-score) [25]: -0.304
- glycan array binding signal (z-score) [26]: -0.276
- glycan array binding signal (z-score) [27]: -0.371
- glycan array binding signal (z-score) [28]: -0.421
- glycan array binding signal (z-score) [29]: -0.105
- glycan array binding signal (z-score) [30]: -0.268
- glycan array binding signal (z-score) [31]: -0.171
- glycan array binding signal (z-score) [32]: -0.205
- glycan array binding signal (z-score) [33]: 0.014
- glycan array binding signal (z-score) [34]: -0.149
- glycan array binding signal (z-score) [35]: -0.34
- glycan array binding signal (z-score) [36]: -0.365
- glycan array binding signal (z-score) [37]: -0.241
- glycan array binding signal (z-score) (Neu5Ac(a2-3)GalNAc): -0.492
